The full ranking holds about 33,000 sequences; the median of “E-score (-0.5 to 0.5)” is about -0.053, and the highest 2% start at about 0.37. The list shows a part of the results.
Target: Hap1 (UniProt P0CE41)
Assay: PBM E-score (8-mer binding enrichment) (E-score (-0.5 to 0.5)); higher = stronger / more preferred TF binding; most listed sequences are background and not binding sites
Settings: protein concentration: 200 nM; construct: GST-DNA-binding domain
Method: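 Universal 'all 10-mer' protein binding microarrays (Agilent AMADID 015681) probed with GST-tagged S. cerevisiae TFs (full-length or DBD) made by in vitro transcription/translation (PURExpress), about 100-200 nM. Bound TF was detected with fluorescent anti-GST. Each ungapped 8-mer (which stands for itself and its reverse complement) is scored by the PBM enrichment score (E-score), a modified Wilcoxon-Mann-Whitney statistic from -0.5 to +0.5, computed with the Universal PBM Analysis Suite. Scale: above 0.35 generally sequence-specific binding.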

UniProt P0CE41, sequence (P0CE41 whole entry): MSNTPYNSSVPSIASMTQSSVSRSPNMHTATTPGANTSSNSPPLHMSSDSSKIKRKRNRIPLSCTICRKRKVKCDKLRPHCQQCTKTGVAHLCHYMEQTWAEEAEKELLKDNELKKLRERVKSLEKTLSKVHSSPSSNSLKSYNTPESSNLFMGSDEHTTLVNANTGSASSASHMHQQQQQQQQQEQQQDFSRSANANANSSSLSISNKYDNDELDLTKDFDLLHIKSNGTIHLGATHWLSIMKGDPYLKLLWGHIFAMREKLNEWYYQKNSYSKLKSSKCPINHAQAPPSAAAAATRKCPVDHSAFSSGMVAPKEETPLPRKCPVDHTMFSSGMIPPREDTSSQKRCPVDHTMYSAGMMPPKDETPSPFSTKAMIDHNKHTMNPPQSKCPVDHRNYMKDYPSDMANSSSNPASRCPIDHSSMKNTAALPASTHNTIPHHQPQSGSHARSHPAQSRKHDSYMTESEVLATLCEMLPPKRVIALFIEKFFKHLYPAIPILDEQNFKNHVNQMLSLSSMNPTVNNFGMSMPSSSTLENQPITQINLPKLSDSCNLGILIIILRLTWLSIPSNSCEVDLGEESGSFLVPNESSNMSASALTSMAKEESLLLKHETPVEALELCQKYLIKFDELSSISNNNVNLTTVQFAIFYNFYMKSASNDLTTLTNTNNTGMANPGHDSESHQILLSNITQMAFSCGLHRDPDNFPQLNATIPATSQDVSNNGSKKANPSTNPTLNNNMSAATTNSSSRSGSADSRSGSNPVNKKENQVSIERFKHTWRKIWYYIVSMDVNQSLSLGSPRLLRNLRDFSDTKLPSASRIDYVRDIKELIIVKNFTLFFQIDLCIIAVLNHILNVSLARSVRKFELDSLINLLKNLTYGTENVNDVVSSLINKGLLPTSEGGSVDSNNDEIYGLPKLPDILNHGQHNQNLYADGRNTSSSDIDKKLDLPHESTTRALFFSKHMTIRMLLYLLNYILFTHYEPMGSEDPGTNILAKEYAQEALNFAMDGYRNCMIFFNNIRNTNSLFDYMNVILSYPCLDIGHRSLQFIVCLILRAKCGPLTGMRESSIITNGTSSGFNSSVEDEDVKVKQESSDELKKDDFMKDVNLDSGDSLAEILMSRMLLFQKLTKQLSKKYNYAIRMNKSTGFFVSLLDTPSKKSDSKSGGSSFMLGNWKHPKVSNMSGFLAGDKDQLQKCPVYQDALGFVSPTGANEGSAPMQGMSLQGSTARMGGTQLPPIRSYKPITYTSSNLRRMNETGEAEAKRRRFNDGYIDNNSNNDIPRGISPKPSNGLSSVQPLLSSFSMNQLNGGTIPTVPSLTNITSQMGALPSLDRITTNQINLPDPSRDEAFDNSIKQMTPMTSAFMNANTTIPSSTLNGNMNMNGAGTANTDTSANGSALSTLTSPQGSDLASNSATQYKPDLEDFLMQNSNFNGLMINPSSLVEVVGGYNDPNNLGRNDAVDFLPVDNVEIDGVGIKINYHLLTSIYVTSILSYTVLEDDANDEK

Sequence	PBM E-score
ACGCAATG	-0.194
CGGCCATA	0.31
CGCCATAG	-0.0279
ATAGCACC	0.0971
AGGTCTTA	0.0242
ATGTAAAG	-0.0593
CAGCATAG	-0.169
CAGAGTCG	-0.201
GAGACCTC	0.0419
CACGGTGA	-0.00345
CTCGGCGC	0.318
AACAGCAA	-0.0695
ACCTCGCA	-0.134
CGCCAAGC	-0.0264
ACACACGC	0.0352
AACCGTGA	0.0639
CTCAGAAA	-0.192
ACTTGTTG	-0.296
CTTACCCC	0.08
AGTACGCA	-0.233
AAGAGACG	0.0838
ACCAATAT	-0.143
AAGGAGTG	-0.182
ATGTACCG	0.137
CAGACTAA	-0.157

Sequence	PBM E-score
CGGCTCTA	0.334
CAAGACCA	-0.379
ATAGAATA	-0.0968
AAGGAGGC	-0.191
GTCTGCTA	-0.158
CCCCCTCG	-0.253
CATGACGC	-0.155
ACTTCTGC	-0.095
ATTATGGG	-0.0181
AAGATATA	0.0708
CTGCAACA	-0.0884
CCTGTGTA	-0.265
ATCTATCA	-0.155
AGAGATAC	-0.0992
AGGGTGTC	-0.047
CAGGAGAG	-0.247
AGAGCAAA	-0.237
CCAAGAGG	-0.281
GTACGTAC	0.00133
GTCATTCA	-0.0197
GCAAAACA	-0.124
AATACTAT	-0.152
CGCGGGGA	0.256
ACCCGTAA	0.238
CCCTCGAC	-0.128

Sequence	PBM E-score
CGTCGGCC	0.332
ATGACAAG	-0.118
GAGCCTTA	-0.0282
GACTTGGC	-0.2
GCTGCACC	0.122
CGCATTAC	0.0604
CTACCATC	-0.179
AGAGCTTA	-0.00803
ATCTCATA	-0.181
CCCGGAAC	0.31
AACTGTAA	-0.0672
GAGGCCGC	-0.0786
ACCTCATC	-0.0418
CGGGCTTA	0.437
CGGACCCG	0.387
CGTAACTA	-0.156
AAAAGAGC	-0.0828
AGTATATC	0.119
CGGTTTTC	0.284
ATCGACAT	-0.0792
ATGTAGGA	-0.137
CGTTCGGC	0.291
GGATCCGA	0.36
GGCTACCC	-0.208
GACATGTC	-0.00499

Sequence	PBM E-score
GTTATGCA	-0.117
ACCCGGAC	0.372
AAAAAACA	0.0127
ATTATCTA	-0.0923
GAAGGCGA	-0.0329
ATCATACC	0.0264
CAGAGCGG	-0.00124
AGTTGTTG	-0.15
CCTGCCTA	-0.16
ATATACTA	0.0448
CCCGTGTA	0.14
AAGAAACG	0.00182
TCAGTCGA	-0.117
CCTGAGAA	-0.253
AGCGAGCA	-0.123
GTCGCCTA	0.0459
CCACGGAC	0.317
CGAGCCAA	-0.0791
ACACCAGG	-0.168
AAATCAAC	-0.108
CTCGCTCC	-0.0453
AGGTATTC	-0.163
ACGCGGGC	0.229
AATACGCA	-0.0542
GTGGGACA	-0.138

Sequence	PBM E-score
CAAGTCCC	-0.181
GACCGTAC	-0.00805
CACTGAAA	-0.0957
ATCCTATA	-0.0118
ATGTCCAC	0.129
CGATAATC	0.168
ACGTCACC	-0.139
AGCGGGTG	0.115
GATTACAC	-0.088
GCAAGGGA	-0.114
ATATTATC	0.0621
ACCTTCAC	-0.103
AGTCGCTA	-0.209
CATAGCCA	-0.139
CTAGGCCC	0.0188
AGCTGTGG	-0.212
GACTTCGC	0.247
CTGTTTGA	-0.132
CGCTGTTC	-0.0933
AATGTAGG	-0.206
CCCTAGAC	-0.342
AGTCCCTG	-0.286
AGTTTTAA	0.0305
AGGCTACG	-0.244
ACCGAACG	0.257

Sequence	PBM E-score
GCGCGAAA	0.116
GTAAAAAC	-0.0259
GCTCCCTA	-0.169
CCTAAACG	-0.0259
GCTCGGAA	0.335
CAAATCCC	0.1
CTGTCCGA	0.317
CACAAGAC	-0.319
AACAGGCT	-0.152
CATATCCA	-0.223
ATGGATCA	-0.116
AAGCCTGG	-0.0685
CCTGTGGC	-0.185
TAACTCTA	-0.0411
GCGCTAGA	-0.0663
CAGAACAC	-0.131
TGGCTTAA	-0.0483
AAGGTTCA	-0.215
TCGCTAGA	-0.109
AAGAGTAT	-0.244
AGCACAGC	0.00459
TTGGCCAA	-0.206
AGGCCGAC	0.32
AGACTCGA	-0.27
ATTTGGCG	-0.0748

Sequence	PBM E-score
GGTACCAC	-0.128
GCATAAGA	0.0451
CTCTGGAC	-0.164
CTCGGCTA	0.321
ATAGTACC	0.102
ATTGCCAG	0.114
AATACCAC	-0.0139
ACTGTCCT	-0.246
AATTTCGG	0.317
AAATTTTG	-0.0619
AGCACTGC	-0.175
AAGTCAGC	-0.258
GCTTCTCC	0.0789
CTGGTACC	0.0305
TTCGCCAA	0.0199
ACAGTGAC	-0.0062
CATCGGCG	0.264
CGTCAATA	-0.0024
ATGCGGAC	0.206
ACACTCTG	-0.12
ACTCTGCG	-0.0115
CCGCCACC	0.0123
ATAGCGCG	-0.0505
CTAATCCA	-0.127
GAACTATC	0.0256

Sequence	PBM E-score
CAGAACCG	0.123
TAGCCCAA	-0.201
CAACAAAC	0.0972
GTGCACAC	-0.151
GTTTTGTA	-0.144
GACGCGAC	-0.148
CTCCCTTC	-0.229
CTCTTGAC	-0.174
AACGGGTC	0.206
AGCAAGAT	-0.0194
AGCGGTCA	0.178
TCTATTCA	-0.234
GGCTGACA	0.0808
CATTCGGC	0.293
ACGAGAGG	-0.0344
AATACAGA	-0.0864
TACTTCTA	-0.0907
CGTACATA	-0.0072
GCGAATCC	0.0143
ACCCGACT	0.278
AAGCCGAG	0.372
AACTATCA	-0.0298
CTGCGCGC	0.152
GTATTACA	-0.00763
CGGTGCCA	0.0856

Sequence	PBM E-score
AAAGGTGG	-0.156
ACGGCCTA	0.157
AGATGGCA	-0.0378
ACCTGAGC	-0.279
ACTCAGAT	-0.255
ACGATTAA	-0.0506
TCCGCGCA	0.244
AACATTCG	-0.0918
AATTACCG	0.374
GTTCAGAA	-0.218
AGTGGATG	-0.147
AACAAGAA	-0.104
TACCTGAA	-0.211
ACAGACCC	-0.0437
AAAGCCCG	0.374
GACCGGAC	0.41
CACGAGTC	-0.147
CTCTAATC	-0.00646
ACCTTCGC	-0.035
